This is an account of results in PubChem BioAssay AID1963576 (National Center for Advancing Translational Sciences (NCATS), 2024).

Among all 46,000 compounds or so, about 60 (0.1%) were called active. About 3% were inconclusive and are not listed. The call rests on the fitted dose curve; in most records, active means well fitted inhibition curve with a large enough effect; inconclusive means small, poorly fitted or top-dose-only effect; inactive means no such curve, though single readings can be large or run the other way. This is one part of the list.

A short description of the assay: Primary qHTS assay for Inhibitors of ovarian cancer metastasis using an organotypic tumor microenvironment (TME) model. Further: nearly all actives have a fitted effect of over 65% in size.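 On activity change, negative = inhibition: plate controls were DMSO wells for no effect and tomatine positive control wells for full effect.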 As to conditions: SKOV3ip1-GFP adhesion/invasion on 3D omental model, fluorescence; series mostly up to 45.8 µM; activity change, negative = inhibition: at the top concentration. An outline of the steps:
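Adhesion/invasion was scored as fixed GFP-labeled SKOV3ip1 cell counts (488/509 nm), normalized to DMSO and tomatine controls. Cancer cells in serum-free medium, with four compound doses (0.36-46 umol/L), sat 2 hr at RT then 16 hr at 37 C on a 48 hr fibroblast/mesothelial/ECM culture.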
On to `COc1ccc(CCNC(=O)c2ccc3[nH]c(C)c(C)c3c2)cc1OC`, for which the “activity change, negative = inhibition” value was inactive: 16.4%.

In the case of `O=S(=O)(NCC(c1ccco1)N1CCN(c2ccc(F)cc2)CC1)c1cc(F)ccc1F` (stereo unspecified), the outcome was inactive.

For `Cn1c(=O)c2c(-c3ccc(Cl)cc3)ccnc2n(C)c1=O`, the result was inactive.

For `CCS(=O)(=O)N1CCC2(CC1)OC(=O)C(C)=C2C(=O)NCc1ccc(OC)c(OC)c1`, the compound was classed as inactive.

For the compound `O=C(Nc1ccccc1)c1ccc(Cl)c(S(=O)(=O)Nc2ccccc2)c1`, the “activity change, negative = inhibition” value is inactive: 3.45%.

As to `Cc1ccc(C(=O)c2cn(Cc3ccccc3)c3c(F)cc(F)cc3c2=O)cc1`, the “activity change, negative = inhibition” value is inactive: -1.1%.

On to `COc1ccc(S(=O)(=O)N2CCCCC2)cc1C(=O)NC1CCS(=O)(=O)C1` (stereo unspecified), for which the “activity change, negative = inhibition” value is inactive: 8.23%.

Regarding `CCOc1ccccc1CNC(=O)CN1C(=O)c2cccnc2Oc2ccc(Cl)cc21`, the “activity change, negative = inhibition” value was inactive: 0.016%.

In the case of `COc1ccc2nc(N(Cc3cccnc3)C(=O)c3ccc(Cl)cc3)sc2c1`, the “activity change, negative = inhibition” value was inactive: 3.88%.

For `Cn1c(=O)c(=O)n(C)c2cc(N3CCCC3)c(NC(=O)c3ccccc3Cl)cc21`, the “activity change, negative = inhibition” value is inactive: 7.15%.

With `Cc1cc(Nc2cccc(Cl)c2)nc2ccc(NC(=O)Cc3c(F)cccc3Cl)cc12`, the “activity change, negative = inhibition” value is inactive: -23.3%.

In the case of `CCC1Oc2ccccc2N(CC(=O)NCc2ccccc2)C1=O` (stereo unspecified), the “activity change, negative = inhibition” value is inactive: 13.9%.

Turning to `COc1ccc(N2CCN(C(=O)c3cn(C)c4ccc(S(=O)(=O)N5CCOCC5)cc4c3=O)CC2)cc1`, the “activity change, negative = inhibition” value is inactive: 1.04%.

`CCN1C(=O)C2(c3ccccc31)c1c(oc3ccccc3c1=O)C(=O)N2CCOC` (stereo unspecified): the “activity change, negative = inhibition” value is inactive: 61.5%.

For `COc1ccc(OC)c(NC(=O)N2CCC3(CC2)Oc2ccccc2C(=O)N3Cc2ccccc2F)c1`, the outcome was inactive.

As to `CCC(C(=O)O)C1CCC(C)C(C(C)C(O)C(C)C(=O)C(CC)C2OC3(C=CC(O)[C@@]4(CC[C@](C)(C5CC[C@@](O)(CC)C(C)O5)O4)O3)C(C)CC2C)O1` (stereo partly specified), the “activity change, negative = inhibition” value was inactive: -29.1%.

`N[C@H](CSC(c1ccccc1)(c1ccccc1)c1ccccc1)C(=O)O`: the “activity change, negative = inhibition” value was inactive: 0.819%.

Turning to `CCCCN(C)C(=O)c1ccc2c(c1)NC(=O)C(CC(C)C)N2` (stereo unspecified), the “activity change, negative = inhibition” value is inactive: -6.5%.

Regarding `COc1ccc(-c2noc(CC(=O)N(C)c3cc(Cl)c(OC)cc3OC)n2)cc1`, the outcome was inactive.

Consider `O=C(Nc1ccc(Br)cc1)c1cc(S(=O)(=O)N2CCc3ccccc32)ccc1F`, for which the “activity change, negative = inhibition” value is inactive: 0.694%.

For `CCOc1ccccc1CNC(=O)CN1C(=O)c2cccnc2Oc2ccc(C)cc21`, the “activity change, negative = inhibition” value was inactive: -8.94%.

Take `CCn1c(=O)c2sccc2n2c(CCCC(=O)Nc3ccc(Oc4ccccc4)cc3)nnc12`: the “activity change, negative = inhibition” value is inactive: 19.8%.

`Cc1c(C(=O)Nc2ccccc2F)sc2nc3n(c(=O)c12)CCC3`: the “activity change, negative = inhibition” value was inactive: -3.79%.

On to `COc1ccc(NC(=O)CN2C(=O)C(=O)c3ccccc32)c(OC)c1`, for which the result was inactive.

For `Cc1cc(C)cc(OCC(=O)N(Cc2ccco2)Cc2ccccc2Cl)c1`, the “activity change, negative = inhibition” value is inactive: 21.3%.

On to `Cc1ccc(-c2nc(-c3cccs3)c(-c3cccs3)[nH]2)cc1`, for which the “activity change, negative = inhibition” value is inactive: -3.61%.

Take `Cc1ccc(OCCSc2nc3ccccc3n2CCC(=O)O)cc1`: the outcome was inactive.

For `Cc1ccc(S(=O)(=O)c2nnn3c2nc(NC2CCCCC2)c2sccc23)cc1C`, the “activity change, negative = inhibition” value was inactive: 25.2%.

For `CN(Cc1ccccc1)c1nc2c(S(=O)(=O)c3ccccc3)nnn2c2ccsc12`, the call was inactive.

Turning to `Cc1ccc(NC(=O)c2nc(S(C)(=O)=O)ncc2N(Cc2ccco2)Cc2ccco2)cc1`, the “activity change, negative = inhibition” value is inactive: -0.49%.

In the case of `O=C(Nc1ncc(Cc2ccccc2Cl)s1)c1ccc2c(c1)CC(c1ccccc1)OC2=O` (stereo unspecified), the “activity change, negative = inhibition” value is inactive: -0.887%.

For the compound `CCCCN(CC)CCCNC(=O)c1nn(-c2ccc(OC)cc2)c(=O)c2c1c1ccccc1n2C`, the “activity change, negative = inhibition” value was inactive: 1.59%.

Turning to `COc1ccc(CC(=O)Nc2nnc3n2CCS3)cc1OC`, the “activity change, negative = inhibition” value was inactive: -14.6%.

In the case of `CCc1ccccc1NC(=O)Cn1nnc(C(=O)NCc2cccc(OC)c2)c1N`, the “activity change, negative = inhibition” value was inactive: -9.52%.

Take `COc1ccc(CNC(=O)CCc2c(C)nc3c4cccnc4nn3c2C)cc1`: the call was inactive.

As for `COc1ccc(C)cc1-n1c(SCC(=O)NCc2ccco2)nc2c([nH]c3ccccc32)c1=O`, the “activity change, negative = inhibition” value was inactive: -2.21%.

Turning to `CC1CCc2nc3ncn(Cc4cccc(F)c4)c(=O)c3cc2C1` (stereo unspecified), the “activity change, negative = inhibition” value was inactive: -13.1%.

As to `Cc1ccc(NC(=O)Cn2c(=O)n(CC(=O)NCCc3ccccc3)c(=O)c3ccccc32)cc1`, the “activity change, negative = inhibition” value was inactive: 5.36%.

Consider `COCCNC(=O)c1cc(-c2cccc(Cl)c2)on1`, for which the “activity change, negative = inhibition” value was inactive: 28.5%.

`O=C(CN1C(=O)COc2ccc(Cl)cc21)Nc1cccc(C(=O)O)c1`: the call was inactive.

For `CCCCN(CC)CCCNC(=O)c1sc2nc3n(c(=O)c2c1C)CCCCC3`, the “activity change, negative = inhibition” value is inactive: -14.7%.

With `Cc1ccc(CCNC(=O)CCCn2c(=O)c3cccn3c3ccc(F)cc32)cc1`, the “activity change, negative = inhibition” value was inactive: -2.83%.

`Cc1ccc(-n2nc(C(=O)N(C)c3ccccc3Cl)c3c4ccccc4n(C)c3c2=O)cc1`: the “activity change, negative = inhibition” value is inactive: 4.3%.

Take `COC(=O)c1cc2occc2n1Cc1nc(-c2ccc(Cl)cc2)oc1C`: the “activity change, negative = inhibition” value is inactive: 0.367%.

Consider `Cc1ccc(NC(=O)Cn2cc(S(=O)(=O)Cc3ccccc3)c3ccccc32)cc1C`, for which the “activity change, negative = inhibition” value was inactive: -8.44%.

`CCc1ccc(S(=O)(=O)c2cn(C)c3ccc(C)cc3c2=O)cc1`: the “activity change, negative = inhibition” value is inactive: -6.89%.

Take `CCc1ccccc1NC(=O)Cn1nc(C)c2nn(-c3ccc(Cl)cc3)c(C)c2c1=O`: the “activity change, negative = inhibition” value is inactive: -70.8%.

Turning to `CCOC(=O)c1ccc(N2C(=O)c3n[nH]c(C)c3C2c2ccc(CC)cc2)cc1` (stereo unspecified), the result was inactive.

`COc1cc2[nH]c(=O)n(CCCC(=O)N(C)Cc3ccccc3)c(=O)c2cc1OC`: the “activity change, negative = inhibition” value was inactive: 8.69%.

In the case of `CCOCCCNC(=O)CN1C(=O)CCn2nc(-c3cccn3C)cc21`, the “activity change, negative = inhibition” value was inactive: -13.5%.

For `COc1ccc(NC(=O)CN2C(=O)C(c3ccccc3)=NC23CCC(C)CC3)cc1Cl` (stereo unspecified), the “activity change, negative = inhibition” value is inactive: -3.07%.

With `CSc1ccc(CCNC(=O)C2CCCN(S(=O)(=O)N(C)c3ccc(F)cc3)C2)cc1` (stereo unspecified), the “activity change, negative = inhibition” value was inactive: 9.57%.

Regarding `CCOC(=O)C(Cc1ccccc1)NC(=O)Cn1nnc(-c2ccc(C)cc2)n1` (stereo unspecified), the “activity change, negative = inhibition” value is inactive: 2.55%.

Turning to `CN(C)S(=O)(=O)N(CC(=O)NCCSCc1ccc(Cl)cc1Cl)c1ccccc1`, the “activity change, negative = inhibition” value was inactive: 29%.

Regarding `C[C@H](NC(=O)OC(C)(C)C)c1nnc(SCc2ccc(Cl)cc2Cl)o1`, the compound was classed as inactive.

As to `COc1ccc(C(C)C)cc1S(=O)(=O)NCCc1c(C)[nH]c2c(Cl)cccc12`, the outcome was inactive.

For the compound `O=C1Cc2cc(S(=O)(=O)Nc3cccc(C(F)(F)F)c3)cc3c2N1CCC3`, the “activity change, negative = inhibition” value was inactive: 3.63%.

Regarding `COc1ccc(-n2ccnc(NCCc3ccc(S(N)(=O)=O)cc3)c2=O)cc1Cl`, the compound was classed as inactive.

As to `CC(C)c1ccc(NC(=O)c2cc(S(=O)(=O)NCCc3ccccc3)ccc2F)cc1`, the “activity change, negative = inhibition” value is inactive: -19.6%.

Turning to `Cc1cccn2c(=O)cc(COc3cccc(NC(=O)Nc4cccc(Cl)c4)c3)nc12`, the “activity change, negative = inhibition” value is inactive: 47.4%.

In the case of `Cc1cc(OC(C)C(=O)N(Cc2ccco2)Cc2ccco2)cc(C)c1Cl` (stereo unspecified), the call was inactive.
